# The whole screen tested about 150,000 compounds, of which about 540 (0.36%) showed an effect of 50% or more. The list shows a part of the results.
# Test system: Plasmodium falciparum
# Test: Primary screen in NF54 nanoGlo assay, in single point, at 2uM, 72h; a lower Z score goes with more inhibition
# Type: functional, Erythrocyte
# Settings: timepoint 72 hour
Compound,% Inhibition [%],Z score
Cc1ncsc1CCC(=O)NCCN1CCNC1=O,9,-1.52
CCC(C)C1NC2(CCN(C(=O)Nc3cccc(Cl)c3)CC2)N(CCc2ccc(OC)c(OC)c2)C1=O (stereo not drawn),3,-0.32
COc1ccc(NC(=O)Cn2cnc3nc(N4CCCC4)ncc3c2=O)c(OC)c1,33,-3.7
Cc1noc(COC(=O)c2ccc(-c3cscn3)cc2)n1,-10,1.84
Cc1cc(NC(=O)N2CCN(C(=O)Cc3c[nH]c4ccccc34)CC2)n(C)n1,-5,0.48
C[C@@H](CNC(=O)C(Cl)(Cl)Cl)OC(=O)Nc1cccc(Cl)c1,10,-1.79
N[C@@H](Cc1ccc(O)cc1)C(=O)N1CCc2[nH]nc(-c3ccccc3F)c2C1,10,-1.39
CCN1C[C@@H](Oc2ccccc2)C[C@H]1C(N)=O,-5,0.72
Fc1ccc(COc2ncnc3scc(-c4ccccc4)c23)c(Cl)c1,-11,1.88
CN(C)c1ccccc1N(C)Cc1ccon1,2,-0.36
FC(F)(F)c1ccc(-c2noc(-c3cc4n(n3)C[C@@H](c3ccc5c(c3)OCO5)OC4)n2)cc1,-4,0.41
C[C@H]1CCCN(Cn2nc(C3CC3)sc2=S)CC1,-2,0.26
CCc1nc(N2CCC[C@H](c3nnc(CN4CCCCC4)n3C)C2)no1,-3,0.45
CC[C@H](NC(=O)C1CCOCC1)c1ccc(C)cn1,1,-0.12
O=C(CCNC(=O)N1CC2CC=CCC2C1)NC1CCCC1 (stereo not drawn),-5,0.53
O=C(O)[C@@H]1C[C@@H](O)CN1CCCCc1ccccc1,0,-0.03
CN(C)c1ccc(C(=O)Nc2ccc(CCc3nc4ccccc4[nH]3)cc2)cc1,-11,1.09
Cc1cccc2oc(CNC(=O)[C@H]3CCC[C@H](O)C3)nc12,-3,0.7
Cc1cc(=O)[nH]c(NC(=N)N2CCc3ccccc32)n1,-17,2.98
COc1ccc(N2CCN(C(=O)Cn3cc(OC)c(=O)cc3CN3CCOCC3)CC2)cc1,-8,0.85
COc1ncccc1C(=O)NCc1nc(-c2cnn(C)c2)no1,0,0.01
Brc1ccc(-n2cnnn2)c2ncccc12,3,-0.41
Cc1ccc(C)c(OCC(=O)N[C@H]2CCCC[C@@H]2NC(=O)COc2cc(C)ccc2C)c1,-6,0.69
CN1CCC2(CCCN(C(=O)C(=O)c3ccco3)CC2)CC1,-8,1.16
CCc1ccc(NC(=O)N2CCC(N(Cc3ccc(C)cc3)C(=O)CN(CCOC)S(=O)(=O)c3ccccc3)CC2)cc1,6,-0.81
O=S(=O)(N1CCCCCC1)N1CCC[C@H]1c1ccccc1,2,-0.34
O=S(=O)(NC[C@](O)(c1ccsc1)c1cccs1)c1cccnc1,-11,1.73

Compound,% Inhibition [%],Z score
CNC(=O)COc1c(Br)cccc1Br,-27,3.12
CCCCCC(=O)Nc1nnc(-c2ccc3c(c2)OCO3)s1,7,-0.83
Cc1cc(C)c2[nH]c(C(=O)N(CCO)Cc3nccs3)c(C)c2c1,-3,0.57
CCCCc1nn(CC(=O)NC)c(=O)n1Cc1ccccc1,-17,1.48
CC(C)[C@H](CNC(=O)c1ccccc1OCc1ccncc1)c1ccccc1,-1,0.15
Cc1ccc(CN2CCCn3nc(C(=O)N(C)CC(=O)NCC4CC4)cc3C2=O)cc1,-25,2.24
CC[C@H](C)N(CC(=O)N1CCN(c2ccc(-c3ccc(OC)c(OC)c3)nn2)CC1)C(=O)c1ccc(Cl)cc1,0,0.01
O=C1C[C@H](Cc2ccc(NCC3=Cc4ccccc4OC3)cc2)C(=O)N1,5,-0.75
COc1ccc(N2C(=O)C3ON(c4ccccc4)C(c4cccnc4)C3C2=O)cc1 (stereo not drawn),-6,0.97
Cc1csc(CN(C)C[C@H]2CCS(=O)(=O)C2)n1,28,-3.15
O=C(NC1CCCC1)N1CCC[C@H](C(=O)N2CCc3[nH]ncc3C2)C1,-5,0.8
COc1ccccc1-c1noc([C@@H]2CCCN2C(=O)c2ccsc2)n1,5,-0.79
O=C(NCCC(F)(F)F)NC[C@H]1CC[C@@H](c2ccccc2)O1,-1,0.15
O=C(c1ccsc1)N1CCCC[C@H]1c1nc(-c2cccnc2)no1,-8,0.88
N#C[C@@H](NC(=O)c1c[nH]c2ncccc12)c1cccc(Cl)c1,-5,0.94
CCCO[C@H]1CCCN(C(=O)c2ccsc2S(N)(=O)=O)CC1,2,-0.29
CC1(C)CN(C(=O)c2nn(-c3cccc(F)c3)c3c2CCC3)C[C@@]2(CCOC2)O1,1,-0.11
Cc1ccc2ccc3cc(C(=O)Nc4ccc(C)c(F)c4)[nH]c3c2n1,9,-1.54
C[C@]1(O)CCN(c2cc(N)ncn2)C[C@H]1Cc1ccccc1,-4,0.71
C#CCN(CC#CC)Cc1csc(C)n1,-4,0.6
FC(F)(F)c1cnccc1N1CCc2[nH]ncc2C1,-11,0.97
c1ccc(-c2nnc[nH]2)c(OCc2noc3c2CCCC3)c1,-3,0.42
c1cnc(-c2ccn(-c3cncnc3)n2)cn1,-3,0.48
CC(C)CCn1ncc(NC(=O)NC2CC(O)C2(C)C)c1C(C)C (stereo not drawn),-7,0.91
Cn1ncnc1NC(=O)c1sccc1OC(F)F,-1,0.1
CCS(=O)(=O)N1CCN(Cc2ccc(OC)nc2)CC1,-7,0.88
COCC1(CC(=O)N2CC(c3nc(-c4ccccc4)no3)C2)CC1,-2,0.23

# — ChEMBL document CHEMBL4888484, “Replenishing the malaria drug discovery pipeline: Screening and hit evaluation of the MMV Hit Generation Library 1 (HGL1) against asexual blood stage Plasmodium falciparum ,using a nano luciferase reporter read-out” (2022)
